Test results published in the supplement of paper PMC3334620.
Whole data set: some 33,000 sequences, median “E-score (-0.5 to 0.5)” near -0.035, cut for the highest 2% near 0.34. Some of the results follow.

These sequences were tested against T1, Mot3 (UniProt P54785) (assay: PBM E-score (8-mer binding enrichment) (E-score (-0.5 to 0.5)); higher = stronger / more preferred TF binding; most listed sequences are background and not binding sites). Conditions: protein concentration: 200 nM; construct: GST-full length.
T1 sequence: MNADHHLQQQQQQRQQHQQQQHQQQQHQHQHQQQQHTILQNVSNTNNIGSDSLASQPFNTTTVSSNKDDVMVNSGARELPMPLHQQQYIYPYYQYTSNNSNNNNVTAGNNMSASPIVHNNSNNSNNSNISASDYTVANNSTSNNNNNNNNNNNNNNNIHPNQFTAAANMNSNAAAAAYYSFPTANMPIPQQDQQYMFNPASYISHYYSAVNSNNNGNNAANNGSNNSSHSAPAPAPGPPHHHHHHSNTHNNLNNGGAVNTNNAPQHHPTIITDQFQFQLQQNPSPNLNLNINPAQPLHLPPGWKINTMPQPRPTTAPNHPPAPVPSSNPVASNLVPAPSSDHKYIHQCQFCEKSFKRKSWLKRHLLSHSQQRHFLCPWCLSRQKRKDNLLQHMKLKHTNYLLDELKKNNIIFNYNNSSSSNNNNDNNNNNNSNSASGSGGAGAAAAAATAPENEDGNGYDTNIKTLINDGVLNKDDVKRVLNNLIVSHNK
Procedure, shortened: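 For each ungapped eight-base word taken together with its reverse complement, the Universal PBM Analysis Suite assigned an E-score. Binding data came from GST-tagged yeast transcription factors, applied at about 100-200 nM, on universal all-10-mer Agilent arrays made double-stranded by primer extension. Fluorescent anti-GST marked bound protein, and scans were normalised with masliner.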

Sequence	PBM E-score
AGTAGCAG	-0.0786
CAAGCCCA	-0.121
CAATCGAA	-0.072
AACTGGTG	-0.193
CACCATCA	-0.00358
AAGCTGGA	-0.172
TAGAGGCA	0.389
GTTTCTCA	-0.169
AAGTCCGA	-0.102
TAAAGGGA	0.016
AGATACGG	-0.243
GATATAGC	-0.192
GACACATC	-0.0862
AAGAGCCA	-0.02
CTGCGATA	-0.111
CCTTTTAA	0.316
GGGGAAAC	-0.107
GTATTGAC	0.0413
ACGACCGA	-0.0732
CTCATGGA	0.261
ATCCAATG	-0.169
AAGAGACC	0.015
GGGATGTA	0.188
CCAGGAGC	-0.247

Sequence	PBM E-score
GACACTCC	-0.00198
TTCTGAAA	0.0514
ATACTGTA	0.103
CATTTGCC	0.127
GACGTCTA	-0.114
ACAACCGG	0.0109
AATGATAC	0.0498
CACTTCAA	0.121
CGAGTACC	0.13
AGGCGCAC	0.251
ACGGCCGC	-0.195
GGAAGGGA	-0.292
AGAAGGGA	-0.376
GGAGGTTA	-0.0376
GCCGAGCA	-0.238
GTATATCA	0.132
AAAGAGGA	-0.112
CGGTCAGC	-0.117
AAATTAGC	-0.0299
CACCTCCC	-0.194
AAACAACT	0.0594
CTGCGTGC	0.0739
CCCTGCTC	-0.187
GGAGACCA	-0.243

Sequence	PBM E-score
CCGGACGG	-0.304
CTCTAGGC	0.19
CCTGAAAC	0.147
CACTGATC	-0.196
CGCCCTTA	-0.0174
CTTTACCC	0.0496
CGGCATGA	-0.315
AGGGTGAA	-0.157
CATATTCA	0.108
CGGTACGA	-0.155
GGCTTGGA	-0.2
CCGATGCG	-0.167
CAAGTGTG	0.0364
AAGGGGCT	0.0322
CCCACGCG	-0.336
CGAACACG	0.171
GTGCTTGA	0.0355
GCGTATCC	0.132
ACCCATTA	0.01
GCCAGTTA	-0.0746
GGCGGACA	-0.218
ACTCCCCG	0.0263
AATTGCCG	-0.145
GGTGACCA	-0.218

Sequence	PBM E-score
CGACCCTA	-0.148
CTTAAATA	0.0129
AGTCGTAT	-0.0638
CATGGGAA	-0.0237
ATGTACGG	0.0566
CTTGTGGA	0.119
AGCAATAT	0.0959
AGAGTCAA	-0.0121
GGTAATAA	0.163
CTAATTAC	0.289
ACATGCTA	0.301
CGAAGCCG	-0.25
AGGTAGCA	-0.133
CGCGTTTA	0.175
AAGGAGAC	-0.0743
AATAAAAA	0.128
GAGTTAGA	-0.0609
ACCATAGG	0.0494
CGAAGTCG	-0.0023
GATTATCA	0.0319
AGTTGGCG	-0.166
CGACGTCG	-0.168
GACAGAGA	0.00973
GATGGTAA	-0.0348

Sequence	PBM E-score
GATCTGGC	0.0157
GGGGGCAC	-0.156
CAGAGCAC	-0.199
ATCCGATG	-0.0714
ATCGGTGG	-0.262
CCCCTTCC	-0.218
ACTAAAGG	0.124
ATTCACAA	0.122
GAATGGGC	-0.0744
CGCACGCG	-0.0139
GAGTTGAA	-0.143
AAAAGGCG	0.278
GATAAGGC	0.128
AATAAATC	-0.0169
CCTAATCC	-0.0698
AGTGAACT	-0.0322
CTTCCCGC	-0.101
CATACGAA	0.0804
GTCCCCTA	-0.202
AACTGGCT	-0.11
AGGGCCCA	-0.343
ACCCATCA	0.0754
AGAGCGGG	-0.167
CGAAGGCC	-0.0438

Sequence	PBM E-score
CACATTGC	0.126
CTGCCTTA	0.059
ATCGGATA	0.0936
GCATATAA	0.156
CTCGCTCA	-0.157
CGGGGAGA	-0.287
CCCTAAAG	-0.267
CTGAGCTC	-0.152
CGTGATCC	-0.146
CACCCTAC	0.0564
CTGGCGCC	0.102
TAAATCCA	0.0752
ATACGTGG	0.128
GGTTTGAC	-0.196
CGTAGAAG	0.118
CTCCGCAG	-0.144
ACTACGAC	-0.00764
ATATCTGG	-0.154
CTTCATTC	-0.196
CGTACCTA	0.395
TATTGCAA	0.0287
CGCAAAAG	-0.0457
CTAGAGAA	-0.102
CTTAGAGA	-0.311

Sequence	PBM E-score
CGACTCAC	-0.165
CATATCCC	0.0119
GGAAGCAC	-0.0803
AGGGGAAT	-0.169
TAAAGTCA	0.0168
ATGTAGCA	0.054
AAGCAAGG	0.00463
TACCAGGA	0.0908
AACCTCAG	-0.252
GATGCCCA	-0.159
GAGGATGC	-0.0988
TTAGTGAA	0.065
ACTATATG	0.0655
AGAATCGG	-0.155
CAAGGCCC	0.0163
CAAAAGAC	-0.0118
GACATTGA	0.0627
AAATAGCA	-0.0284
CTCGCGGA	-0.256
CCATCCAG	-0.286
ATTTCCAA	0.0549
AGCTTTAT	0.0439
GGATCCTA	-0.0909
ATAGTGCA	0.134

Sequence	PBM E-score
ACTGCTAA	-0.301
AGCTCACA	0.11
CACTAGAC	-0.0752
CGTCTGGA	-0.265
ACGAGCGT	0.0249
AACTTAGA	-0.0415
AGATGGGG	-0.235
AGCCATGC	0.0307
CCGGTTCG	-0.227
AGCTGAGG	-0.217
CGAGGACC	-0.199
CGAGCGCC	-0.0813
ACACACAA	0.306
ACAAACGT	0.106
ACAAAGGT	0.0948
ACCCCTAA	-0.201
AGGCCCCA	-0.081
CCAACCGA	-0.0369
CCTGAACG	-0.0246
CTAACGAG	-0.0675
GATGCAGA	-0.229
ATCGCTGG	-0.207
CTAGGTCA	-0.135
CAGTCTAG	-0.214

Sequence	PBM E-score
AGTTTCCG	-0.134
ATTGGGCA	0.177
ACGGCCCA	-0.257
AAACACCA	0.00824
GTTCAACA	0.203
ACGTAGAA	0.258
ATCATCTC	-0.0265
TGAATCAA	0.162
CCATAAGG	-0.155
AATCGGCG	-0.0434
TAAGGTCA	0.0282
ACGTCGCT	-0.0667
CACTGCAA	0.0211
GGTTCCAC	-0.34
CGCCCGGA	-0.266
AAGTTCCC	-0.309
GCCCCAGC	-0.197
GTATAGGA	0.112
GCGAAGGA	0.0252
AGGACTTG	-0.037
GAGAACAA	0.0439
ACTGACGC	-0.177
AAAGTCTA	-0.0516
ATTCCACA	0.132

Sequence	PBM E-score
CACCTTCC	0.0105
CCCATCAA	-0.036
TGCTGCCA	-0.0929
ACATCGGA	0.144
GTCATGCA	0.0879
CCCCCACG	-0.183
CACTGCCG	-0.193
GACTTTAA	0.00571
ATCTCTAC	0.00482
AGCCTGTG	0.123
AGTTATTA	0.146
CTATAACC	-0.0507
CCATGCGG	-0.127
AAATTAAG	0.135
CAGTGCTA	-0.178
CTTCCTGC	-0.0264
ACGGGTCT	-0.0726
AGGATTTC	-0.0368
ACTGCGCC	-0.114
ATGGAACC	-0.182
AAGTAGCA	-0.0238
CCTGTCAG	0.0244
GTCCGTTA	0.111
ACAACTTA	0.218

Sequence	PBM E-score
AGACAGGG	-0.286
ACCTTGTG	0.123
ATAACAAA	0.172
GAAGGGCA	0.0344
CAGTCACC	0.248
CGAATAGC	-0.19
AAAATACA	0.298
GGTTTTCA	0.0221
GCTTTCCA	0.036
ATGTTGGA	0.253
ATGTCTAC	0.0545
AAAAAACT	-0.00503
GATACATC	0.188
AGGTATGG	-0.327
CCTACTCG	0.0723
CATAAACC	-0.056
AGGGGAAC	-0.129
ACTTTAGC	-0.136
AAGATGCC	-0.0425
CTCCAAAG	-0.148
GTTAAAAC	0.254
TTCTAAAA	0.0137
CGCGTTAC	0.138
GACCTAGA	-0.187

Sequence	PBM E-score
CATAACGG	0.0242
GCGTGCAC	-0.175
CGTCCTAA	-0.0434
TACTCTGA	0.0284
ATAATGCC	-0.0507
CATTTCCC	0.0713
CGCTAGCA	-0.149
AATCACGT	0.103
AACAACTG	0.103
GGAAATGA	0.0941
GATAAGGA	0.103
AACACTAA	0.128
AGAGCACG	-0.119
CCATCTAA	-0.0463
GGAATCAC	-0.159
GCACGAAC	0.22
TGGCTGAA	-0.0832
AGGCCGAG	-0.163
CAGATCGA	-0.213
ATGTCGGG	0.124
CAAAACAA	0.152
